Data from patent US11285169B2, “Methods for modulating chemotherapeutic cytotoxicity” (The United States of America, as represented by the …, priority 2013, dated 2022).
Where a name gives a salt, the structure may show the parent alone. Read-outs that look alike come from different tables or passages of the source.

Legend:
[1] = tested on: CD47 deficient (CD47 KO) Jurkat T cells; details: for Δ Maximal Response CD47KO-WT: difference CD47 KO minus WT Jurkat cells; for AC50: read-out: AC50 (μM) CD47 KO, cell viability
WT Jurkat cells = details: for AC50: read-out: AC50 (μM) WT
[2] = CD47 KO Jurkat T cells, 48 hours, 10^-9 to 10^-4 M, CellTiter-Glo
[3] = WT Jurkat cells, 48 hours, 10^-9 to 10^-4 M, CellTiter-Glo
[4] = CD47 KO Jurkat T cells, 48 hours

COc1ccc(C(=O)c2c(C)n(CCN3CCOCC3)c3ccccc23)cc1 [Pravadoline]
Maximal Response CD47 KO (RLU) [1]: 110.289 RLU | Maximal Response WT (RLU) (WT Jurkat cells): 83.446 RLU

C[C@]12C=CC(=O)C=C1CC[C@@H]1[C@@H]2[C@@H](O)C[C@@]2(C)[C@H]1CC[C@]2(O)C(=O)CO [Prednisolone]
Maximal Response CD47 KO (RLU) [1, 2]: 71.927 RLU | Maximal Response WT (RLU) (WT Jurkat cells; [3]): 43.795 RLU

CCCCC[C@H](O)/C=C/[C@H]1[C@H](O)CC(=O)[C@@H]1C/C=C\CCCC(=O)O [Prostaglandin E2]
Maximal Response CD47 KO (RLU) [1, 2]: 68.744 RLU | Δ Maximal Response CD47KO-WT ([1]; 48 hours): 27.046 | Maximal Response WT (RLU) (WT Jurkat cells; [3]): 41.698 RLU

O=c1c(-c2ccc(O)cc2)coc2c([C@@H]3O[C@H](CO)[C@@H](O)[C@H](O)[C@H]3O)c(O)ccc12 [Puerarin]
Maximal Response CD47 KO (RLU) [1, 2]: 110.056 RLU | Maximal Response WT (RLU) (WT Jurkat cells; [3]): 12.378 RLU

CC(C)[C@H](CO)Nc1nc(Nc2ccc(C(=O)O)c(Cl)c2)c2ncn(C(C)C)c2n1 [Purvalanol B]
Δ LogAC50 CD47KO-WT [1]: 0.55 | AC50 [1, 4]: 52.6 µM | AC50 (WT Jurkat cells): 14.8 µM

COc1ccc(F)c(F)c1C(=O)c1cnc(NC2CCN(S(C)(=O)=O)CC2)nc1N [R-547]
Maximal Response CD47 KO (RLU) [1, 2]: 36.61 RLU | Δ Maximal Response CD47KO-WT ([1]; 48 hours): 33.51 | Maximal Response WT (RLU) (WT Jurkat cells; [3]): 3.1 RLU

CC(C)c1nn(-c2c(Cl)cccc2Cl)c2nc(Cc3ccc(OCCO)cc3)[nH]c(=O)c12 [RGB-286147]
Maximal Response CD47 KO (RLU) [1, 2]: 39.37 RLU | Δ Maximal Response CD47KO-WT ([1]; 48 hours): 37.595 | Maximal Response WT (RLU) (WT Jurkat cells; [3]): 1.775 RLU

Cc1cc(Nc2cc(NC(=O)c3c(Cl)cccc3Cl)ccn2)nc(N)n1 [RO495]
Maximal Response CD47 KO (RLU) [1, 2]: 38.025 RLU | Δ Maximal Response CD47KO-WT ([1]; 48 hours): 24.677 | Maximal Response WT (RLU) (WT Jurkat cells; [3]): 13.348 RLU

CC(C)(C(=O)NCC(F)(F)C(F)(F)F)C(=O)N[C@@H]1C(=O)Nc2ccccc2-c2ccccc21 [RO-4929097]
Δ LogAC50 CD47KO-WT ([1]; log AC50 difference CD47 KO minus WT): 1 | AC50 [1, 4]: 18.7 µM | AC50 (WT Jurkat cells; WT Jurkat cells, cell viability, 48 hours): 1.87 µM

COCCCOc1ccnc(C[S+]([O-])c2nc3ccccc3[nH]2)c1C (stereo not shown) [Rabeprazole]
Maximal Response CD47 KO (RLU) [1, 2]: 115.444 RLU | Maximal Response WT (RLU) (WT Jurkat cells; [3]): 92.342 RLU

Cc1nc2ccc(CN(C)c3ccc(C(=O)N[C@@H](CCC(=O)O)C(=O)O)s3)cc2c(=O)[nH]1 [Raltitrexed]
Maximal Response CD47 KO (RLU) [1, 2]: 59.656 RLU | Maximal Response WT (RLU) (WT Jurkat cells; [3]): 22.166 RLU

NC(=O)c1ncn([C@@H]2O[C@H](CO)[C@@H](O)[C@H]2O)n1 [Ribavirin]
Maximal Response CD47 KO (RLU) [1, 2]: 113.259 RLU | Maximal Response WT (RLU) (WT Jurkat cells; [3]): 82.278 RLU

CO[C@H]1C[C@@H]2CC[C@@H](C)[C@@](O)(O2)C(=O)C(=O)N2CCCC[C@H]2C(=O)O[C@H]([C@H](C)C[C@@H]2CC[C@@H](OP(C)(C)=O)[C@H](OC)C2)CC(=O)[C@H](C)/C=C(\C)[C@@H](O)[C@@H](OC)C(=O)[C@H](C)C[C@H](C)/C=C/C=C/C=C/1C [Ridaforolimus]
Maximal Response CD47 KO (RLU) [1, 2]: 33.391 RLU | Maximal Response WT (RLU) (WT Jurkat cells; [3]): 8.791 RLU

CO[C@H]1/C=C/O[C@@]2(C)Oc3c(C)c(O)c4c(O)c(c(/C=N/N5CCN(C6CCCC6)CC5)c(O)c4c3C2=O)NC(=O)/C(C)=C\C=C\[C@H](C)[C@H](O)[C@@H](C)[C@@H](O)[C@@H](C)[C@H](OC(C)=O)[C@@H]1C [Rifapentine]
Maximal Response CD47 KO (RLU) [1, 2]: 52.75 RLU | Maximal Response WT (RLU) (WT Jurkat cells; [3]): 2.402 RLU

C1COC(NC(C2CC2)C2CC2)=N1 [Rilmenidine]
Maximal Response CD47 KO (RLU) [1, 2]: 87.857 RLU | Maximal Response WT (RLU) (WT Jurkat cells; [3]): 56.878 RLU

CN(C)CCc1c[nH]c2ccc(Cn3cncn3)cc12 [Rizatriptan benzoate]
Maximal Response CD47 KO (RLU) [1, 2]: 83.76 RLU | Maximal Response WT (RLU) (WT Jurkat cells; [3]): 62.211 RLU

CCCn1c(=O)c2[nH]c(C34CC5CC(CC3C5)C4)nc2n(CCC)c1=O [Rolofylline]
Maximal Response CD47 KO (RLU) [1, 2]: 84.234 RLU | Maximal Response WT (RLU) (WT Jurkat cells; [3]): 61.315 RLU

N[C@@H](CSC(c1ccccc1)(c1ccccc1)c1ccccc1)C(=O)O [S-Trityl-L-cysteine]
Maximal Response CD47 KO (RLU) [1, 2]: 80.305 RLU | Maximal Response WT (RLU) (WT Jurkat cells; [3]): 33.811 RLU

CC(C)(Cc1ccc2ccccc2c1)NC[C@@H](O)COc1cccc(Cl)c1C#N [SB262470 NPS-2143]
Maximal Response CD47 KO (RLU) [1, 2]: 97.874 RLU | Δ Maximal Response CD47KO-WT ([1]; 48 hours): 78.28 | Maximal Response WT (RLU) (WT Jurkat cells; [3]): 19.594 RLU

Cc1cc(NC(=O)Nc2ccc(N(C)C)cc2)c2cc(F)cc(F)c2n1 [SB-408124]
Maximal Response CD47 KO (RLU) [1, 2]: 50.614 RLU | Δ Maximal Response CD47KO-WT ([1]; 48 hours): 27.547 | Maximal Response WT (RLU) (WT Jurkat cells; [3]): 23.067 RLU

COc1ccc(COc2cc3oc(=O)c4cc(C(C)O)ccc4c3cc2OC)cc1 (stereo not shown) [SG-00529]
Maximal Response CD47 KO (RLU) [1, 2]: 39.325 RLU | Maximal Response WT (RLU) (WT Jurkat cells; [3]): 14.623 RLU

CC(C)(C)c1cnc(CSc2cnc(NC(=O)C3CCNCC3)s2)o1 [SNS-032]
Maximal Response CD47 KO (RLU) [1, 2]: 34.22 RLU | Maximal Response WT (RLU) (WT Jurkat cells; [3]): 0.946 RLU

O=C(Nc1cccc(Cl)c1)Nc1ncc(CCNc2ncnc3ccsc23)s1 [SNS-314]
Maximal Response CD47 KO (RLU) [1, 2]: 60.794 RLU | Maximal Response WT (RLU) (WT Jurkat cells; [3]): 31.863 RLU

Cc1c(C)n(Cc2ccc(-c3ccccc3C(=O)O)cc2)c2ccc(C(=O)N[C@@H](C)c3ccc([N+](=O)[O-])cc3)cc12 [SR1664]
Maximal Response CD47 KO (RLU) [1, 2]: 67.276 RLU | Δ Maximal Response CD47KO-WT ([1]; 48 hours): 42.247 | Maximal Response WT (RLU) (WT Jurkat cells; [3]): 25.029 RLU

CCCCCNC(=O)N1CCC(CN(Cc2ccc(Cl)cc2)Cc2ccc([N+](=O)[O-])s2)C1 (stereo not shown) [SR9011]
Maximal Response CD47 KO (RLU) [1, 2]: 30.529 RLU | Maximal Response WT (RLU) (WT Jurkat cells; [3]): 7.859 RLU

CN(C)S(=O)(=O)c1ccc2c(c1)/C(=C/c1cc3c([nH]1)CCCC3)C(=O)N2 [SU-6656]
Maximal Response CD47 KO (RLU) [1, 2]: 72.735 RLU | Maximal Response WT (RLU) (WT Jurkat cells; [3]): 39.636 RLU

CNC(=O)CN1CCC(Oc2cc3c(Nc4cccc(Cl)c4F)ncnc3cc2OC)CC1 [Sapitinib]
Maximal Response CD47 KO (RLU) [1, 2]: 42.354 RLU | Maximal Response WT (RLU) (WT Jurkat cells; [3]): 14.043 RLU

COc1cc(C2Oc3cc([C@H]4Oc5cc(O)cc(O)c5C(=O)[C@@H]4O)ccc3OC2CO)ccc1O (stereo partly shown) [Silybin]
Maximal Response CD47 KO (RLU) [1, 2]: 40.999 RLU | Maximal Response WT (RLU) (WT Jurkat cells; [3]): 13.77 RLU

O=C1C=CC[C@@H]2[C@H]3CCCN4CCC[C@@H](CN12)[C@@H]34 [Sophocarpine]
Maximal Response CD47 KO (RLU) [1, 2]: 83.612 RLU | Maximal Response WT (RLU) (WT Jurkat cells; [3]): 40.909 RLU

NCCCCNCCCN [Spermidine]
Maximal Response CD47 KO (RLU) [1, 2]: 82.208 RLU | Maximal Response WT (RLU) (WT Jurkat cells; [3]): 20.847 RLU

CCS(=O)(=O)c1cccc(-c2cc(C(=O)NC3CCN(C)CC3)c(C)c3[nH]c4ncc(C)cc4c23)c1 [TAK-901]
Maximal Response CD47 KO (RLU) [1, 2]: 33.892 RLU | Maximal Response WT (RLU) (WT Jurkat cells; [3]): 4.465 RLU

Cc1cc(C(C)Nc2ccccc2)c2nc(N3CCOCC3)cc(=O)n2c1 (stereo not shown) [TGX-221]
Maximal Response CD47 KO (RLU) [1, 2]: 40.352 RLU | Δ Maximal Response CD47KO-WT ([1]; 48 hours): 22.41 | Maximal Response WT (RLU) (WT Jurkat cells; [3]): 17.942 RLU

CC(C)c1ccccc1Cc1cc(C(=O)Nc2ccc(S(=O)(=O)c3ccccc3C(C)(C)C)cc2)c(O)c(O)c1O [TW-37]
Maximal Response CD47 KO (RLU) [1, 2]: 34.779 RLU | Δ Maximal Response CD47KO-WT ([1]; 48 hours): 21.34 | Maximal Response WT (RLU) (WT Jurkat cells; [3]): 13.439 RLU

Nc1cccc(-c2cc3c(Oc4cccc(O)c4)ncnc3[nH]2)c1 [TWS-119]
Maximal Response CD47 KO (RLU) [1, 2]: 41.471 RLU | Δ Maximal Response CD47KO-WT ([1]; 48 hours): 26.215 | Maximal Response WT (RLU) (WT Jurkat cells; [3]): 15.256 RLU

Cc1coc2c1C(=O)C(=O)c1c-2ccc2c(C)cccc12 [Tanshinone I]
Maximal Response CD47 KO (RLU) [1, 2]: 62.314 RLU | Δ Maximal Response CD47KO-WT ([1]; 48 hours): 39.284 | Maximal Response WT (RLU) (WT Jurkat cells; [3]): 23.03 RLU

CN(C/C=C/C#CC(C)(C)C)Cc1cccc2ccccc12 [Terbinafine hydrochloride]
Maximal Response CD47 KO (RLU) [1, 2]: 58.754 RLU | Maximal Response WT (RLU) (WT Jurkat cells; [3]): 36.243 RLU
